# “And” between values parts separate entries of the source, which are not always exact repeats. Equal values may be shown once. Where a name gives a salt, the structure may show the parent alone. ± gives the standard deviation of the averaged measurements. Over roughly 3,200 compounds, “nuclei count (viability) relative to DMSO” has its median near 99; the lowest 2% begin near 16. The list shows a part of the results.
# Test system: U2OS
# Assay: nuclei count (viability) relative to DMSO (% of DMSO); higher = more viable cells
# Conditions: 10 µM; 24 h
# Procedure: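 Primary image-based screen in U2OS cells: compounds at 10 uM for 24 h, then a 1 h o-propargyl-puromycin (OPP) pulse, click labelling, and high-throughput microscopy. Mean cytoplasmic OPP intensity and nuclei count were normalised to DMSO wells within each plate (DMSO = 100) and averaged over triplicate plates.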
row,Compound,nuclei count
1,CNC(=O)Nc1ccc(-c2nc(N3CC4CCC(C3)O4)c3cnn(C4CCC5(CC4)OCCO5)c3n2)cc1,88.1
2,CC1CS(=O)(=O)CCN1/N=C/c1ccc([N+](=O)[O-])o1 (stereo not given) [Nifurtimox],103
3,CNC1(C)C2CCC(C2)C1(C)C (stereo not given) [Mecamylamine hydrochloride],115
4,Cc1c(Cn2c(C)nc3c(C(=O)O)cc(N4CCOCC4)cc32)cccc1C(F)(F)F,101 ± 1.8
5,CCCc1nc(C(C)(C)O)c(C(=O)OCc2oc(=O)oc2C)n1Cc1ccc(-c2ccccc2-c2nnn[nH]2)cc1 [Olmesartan medoxomil (Benicar)],101
6,Cn1c(=O)c2c(ncn2CC(O)CO)n(C)c1=O (stereo not given) [Diprophylline],108
7,NC(=O)c1cccnc1 [Nicotinamide],107 ± 2.6
8,CCC(C)(CN(C)C)OC(=O)c1ccccc1 (stereo not given) [Amyleine hydrochloride],107
9,CC(=C(CCO)SSCC1CCCO1)N(C=O)Cc1cnc(C)nc1N (stereo in doubt) [Fursultiamine Hydrochloride],102
10,C=C(NC(=O)C(=C)NC(=O)c1csc(C2=N[C@@H]3c4csc(n4)[C@H]4NC(=O)c5csc(n5)[C@H]([C@](C)(O)[C@@H](C)O)NC(=O)[C@H]5CSC(=N5)/C(=C/C)NC(=O)[C@H]([C@@H](C)O)NC(=O)c5csc(n5)[C@]3(CC2)NC(=O)[C@H](C)NC(=O)C(=C)NC(=O)[C@H](C)NC(=O)[C@H]([C@@H](C)CC)N[C@@H]2C=Cc3c([C@H](C)O)cc(nc3[C@H]2O)C(=O)O[C@@H]4C)n1)C(N)=O [Thiostrepton],16.2
11,CN(CCOc1ccc(-c2ccc3c(c2)OCO3)cc1C(C)(C)C)CC(=O)O,98
12,CC(C)(Oc1ccc(C2CC2(Cl)Cl)cc1)C(=O)O (stereo not given) [Ciprofibrate],98.5
13,N[C@@H](CSS(=O)(=O)O)C(=O)O [S-Sulfo-L-cysteine sodium salt],103
14,Nc1nc(Nc2ccc(S(N)(=O)=O)cc2)nn1C(=O)c1c(F)cccc1F,40.5
15,CC(C)c1onc(-c2c(Cl)cccc2Cl)c1COc1ccc(/C=C/c2cccc(C(=O)O)c2)c(Cl)c1,109 and 96
16,C[C@@]1(O)[C@H](O)[C@@H](CO)O[C@H]1n1cnc2c(NC3CCCC3)nc(Cl)nc21,96
17,C=CCN1CCCC1CNC(=O)c1cc2nn[nH]c2cc1OC (stereo not given) [Alizapride HCl],106
18,NC(=O)[C@@H](CCC(F)(F)F)N(Cc1ccc(-c2ncon2)cc1F)S(=O)(=O)c1ccc(Cl)cc1,99
19,COc1ccc(CNCc2cccc3ccccc23)cc1,95.9
20,Cc1[nH]c(/C=C2\C(=O)Nc3ccc(S(=O)(=O)Cc4c(Cl)cccc4Cl)cc32)c(C)c1C(=O)N1CCC[C@@H]1CN1CCCC1,76 and 28
21,N#CC(=C(/N)Sc1ccccc1N)/C(C#N)=C(\N)Sc1ccccc1N,96.4
22,CC1=C(C(=O)O)N2C(=O)[C@@H](NC(=O)[C@H](N)c3ccc(O)cc3)[C@H]2SC1 [Cefadroxil],107
23,CC(O)(C(=O)Nc1ccc(S(=O)(=O)c2ccccc2)cc1)C(F)(F)F (stereo not given),128 and 105
24,"C1CCC2(CC1)CCNCC2 [4,4-Pentamethylenepiperidine hydrochloride]",97.9
25,CC1=C(C(=O)OCCN(Cc2ccccc2)c2ccccc2)C(c2cccc([N+](=O)[O-])c2)C(P2(=O)OCC(C)(C)CO2)=C(C)N1 (stereo not given) [Efonidipine hydrochloride monoethanolate],99.9

row,Compound,nuclei count
1,CC(CCc1ccc(O)cc1)NCCc1ccc(O)c(O)c1 (stereo not given) [Dobutamine hydrochloride],96.1 ± 6
2,CCCNS(=O)(=O)Nc1ncnc(OCCOc2ncc(Br)cn2)c1-c1ccc(Br)cc1 [Macitentan],104
3,CC1CCN(CCCC(=O)c2ccc(F)cc2)CC1 [Melperone hydrochloride],98.9
4,COc1cc2ncnc(Nc3ccc(Oc4ccccc4)cc3)c2cc1OC,84.3
5,Nc1ccc(S(N)(=O)=O)cc1 [Sulfanilamide],101
6,CCN1CCC[C@H]1CNC(=O)c1cc(S(N)(=O)=O)ccc1OC [Levosulpiride (Levogastrol)],102
7,CCN1CCC[C@H]1CNC(=O)c1cc(S(N)(=O)=O)ccc1OC [(S)-(-)-Sulpiride],104
8,Clc1ccc(-c2nc3sccn3c2/C=N/OCc2ccc(Cl)c(Cl)c2)cc1,98.1 ± 4.4
9,O=C1C(Cl)=C(NCCN2CCOCC2)C(=O)c2ncccc21,5.89
10,CCOc1nc2cccc(C(=O)OC(C)OC(=O)OC3CCCCC3)c2n1Cc1ccc(-c2ccccc2-c2nn[nH]n2)cc1 (stereo not given) [Candesartan cilexetil (Atacand)],100
11,COc1ccc(-c2cc3c(C)nc(N)nc3n([C@H]3CC[C@H](OCCO)CC3)c2=O)cn1,52.2
12,Cn1c(=O)c(F)c(Nc2ccc(I)cc2F)c2c(=O)n(C[C@@H](O)CO)cnc21,82.9
13,CC[C@]12CCCN3CCc4c(n(c5ccccc45)[C@@](O)(C(=O)OC)C1)[C@@H]32 [Vincamine],97.5
14,CSc1ccc(/C=C2/C(C)=C(CC(=O)O)c3cc(F)ccc32)cc1 [Sulindac Sulfide],99
15,CCC(C)(C)c1ccc(CC(C)CN2C[C@@H](C)O[C@@H](C)C2)cc1 (stereo not given in full) [Amorolfine HCl],84.5
16,CCOC(=O)c1ccc(C#Cc2ccc3c(c2)C(C)(C)CCS3)nc1 [Tazarotene (Avage)],107
17,CC(C)(C)C#Cc1cc(N(C(=O)[C@H]2CC[C@H](C)CC2)[C@H]2CC[C@H](O)CC2)c(C(=O)O)s1,104
18,CC(C)N(CCC(=O)c1ccc2ccccc2c1)Cc1ccccc1,93.5 and 97.8
19,O=C(O)c1cc(=O)c2c(OCC(O)COc3cccc4oc(C(=O)O)cc(=O)c34)cccc2o1 [Cromolyn disodium salt],100
20,CS(=O)(=O)c1ccc(Cn2c3c(c4cc(F)cc(F)c42)CCCC3CC(=O)O)cc1 (stereo not given),108
21,Cc1c(CC(C)(C)C(=O)O)n(Cc2ccc(Cl)cc2)c2ccc(F)cc12,102
22,C/N=C(/NC#N)NCCSCc1csc(NC(=N)N)n1 [Tiotidine],108
23,CCN1/C(=C/C(C)=O)Sc2ccc(OC)cc21,106
24,CC(=O)OC(C)C[N+](C)(C)C (stereo not given) [Methacholine chloride],107
25,CCCCOc1ccc(CC(=O)NO)cc1 [Bufexamac],95.9

row,Compound,nuclei count
1,C=CCc1ccccc1OCC(O)CNC(C)C (stereo not given) [Alprenolol hydrochloride],109
2,NC[C@H]1CC[C@H](C(=O)O)CC1 [Tranexamic acid],95
3,Cc1ccc(O)c([C@H](CCN(C(C)C)C(C)C)c2ccccc2)c1 [Tolterodine tartrate (Detrol LA)],102
4,CCCCC[C@H](CC(=O)NO)C(=O)N[C@H](C(=O)N1CCC[C@H]1CO)C(C)C [Actinonin],95.2
5,Cc1cccc(Nc2nc(-c3ccncc3)cs2)c1,85.3
6,CN(C)CCC(c1ccccc1)c1ccccn1 (stereo not given) [Pheniramine maleate],103
7,O=[N+]([O-])c1cc(Cl)ccc1S(=O)(=O)N1CCN(Cc2ccccc2)CC1,117
8,CCCCc1nn(-c2ccccc2C(F)(F)F)c(=O)n1Cc1ccc(-c2ccccc2S(=O)(=O)NC(=O)c2sccc2C)cc1,101
9,CCSc1ccc2c(c1)N(CCCN1CCN(C)CC1)c1ccccc1S2 [Thiethylperazine dimalate],94.6
10,CSCCC(C=O)NC(=O)C(CC(C)C)NC(=O)[C@H](CC(C)C)NC(C)=O (stereo not given in full) [Calpain Inhibitor II (ALLM)],102
11,O=c1cc(CN2CCOCC2)occ1OCCCCCSc1ccnc2cc(C(F)(F)F)ccc12,102
12,CCCCCCCCCC(=O)N[C@@H](CCCN=C(N)N)C(=O)N[C@H](C(=O)N[C@@H](CCCCN)C(=O)N[C@@H](CCCN=C(N)N)C(=O)CCl)C(C)C,99.8
13,CCOc1ccc(Cc2cc([C@@H]3O[C@H](CO)[C@@H](O)[C@H](O)[C@H]3O)ccc2Cl)cc1 [Dapagliflozin],106
14,CN(C)CCN1C(=O)c2cccc3cc(N)cc(c23)C1=O [Amonafide],41.9
15,CCN(CC)CCNC(=O)c1c(C)[nH]c(/C=C2\C(=O)Nc3ccc(Cl)cc32)c1C,79.9
16,CCN(CCCc1ccccc1)CCCc1ccccc1 [Alverine citrate salt],88.8
17,COc1cc2c(cc1OC)CN(CCc1ccc(NC(=O)c3cccc4c(=O)c5cccc(OC)c5[nH]c34)cc1)CC2 [Elacridar],108
18,CCn1c(-c2nonc2N)nc2cnc(Oc3cccc(NC(=O)c4ccc(OCCN5CCOCC5)cc4)c3)cc21,77.5
19,CC[C@]1(O)C[C@@H]2CN(CCc3c([nH]c4ccccc34)[C@@](C(=O)OC)(c3cc4c(cc3OC)N(C)[C@H]3[C@@](O)(C(=O)OC)[C@H](OC(C)=O)[C@]5(CC)C=CCN6CC[C@]43[C@@H]65)C2)C1 [Vinblastine sulfate],16.8
20,CC[C@]1(O)C[C@@H]2CN(CCc3c([nH]c4ccccc34)[C@@](C(=O)OC)(c3cc4c(cc3OC)N(C)[C@H]3[C@@](O)(C(=O)OC)[C@H](OC(C)=O)[C@]5(CC)C=CCN6CC[C@]43[C@@H]65)C2)C1 [Vinblastine],100
21,Nc1cc(N2CCCCC2)nc(N)[n+]1OS(=O)(=O)[O-] [Minoxidil sulfate],88.6
22,Cc1cc(CS(=O)(=O)c2ccccc2)cc(OCc2ccc(CN3CCC[C@@H]3CO)cc2)c1,97
23,CCCCC#Cc1nc(NC)c2ncn([C@@H]3O[C@H](CO)[C@@H](O)[C@H]3O)c2n1,96.4
24,Cn1cnc(N)c2ncnc1-2 [3-Methyladenine (3-MA)],107
25,Cn1cnc(N)c2ncnc1-2 [3-Methyladenine],104

# Source: the supplement of paper PMC8183993
